Literature values, collected in article PMC11006913.
This is one part of the list.

Key:
Settings in all cases: PBM; conditions not shown; double strand, one strand shown; scale: upbm affinity estimate (log intensity, higher = more binding, comparable within an allelic series)
[1] = target: NKX2-5 K183E (Homo sapiens) (UniProt P52952)
[2] = target: NKX2-5 R161P (Homo sapiens) (UniProt P52952)
[3] = target: NKX2-5 R190C (Homo sapiens) (UniProt P52952)

Row | Sequence | binding signal [1] | binding signal [2] | binding signal [3]
1 | CGGAGGCA [8-mer CGGAGGCA] | 10.2 | 10.2 | 10.2
2 | TAAGTGCA [8-mer TAAGTGCA] | 11.4 | 12.8 | 10.9
3 | CTCAAGTA [8-mer CTCAAGTA] | 11.3 | 12.7 | 10.8
4 | CCAGCGTA [8-mer CCAGCGTA] | 10.3 | 10.5 | 10.4
5 | CGCTCTGC [8-mer CGCTCTGC] | 10.2 | 10.3 | 10.2
6 | AACACGGC [8-mer AACACGGC] | 10.3 | 10.3 | 10.3
7 | ACCACGGC [8-mer ACCACGGC] | 10.3 | 10.4 | 10.4
8 | TAAGTGTA [8-mer TAAGTGTA] | 11.5 | 12.6 | 11.2
9 | ACAGCCGG [8-mer ACAGCCGG] | 10.3 | 10.4 | 10.2
10 | AAGTGCGT [8-mer AAGTGCGT] | 10.9 | 12.2 | 10.6
11 | TAAGTACA [8-mer TAAGTACA] | 11.3 | 12.6 | 11.1
12 | CCGGACAG [8-mer CCGGACAG] | 10.3 | 10.2 | 10.3
13 | CACTTACC [8-mer CACTTACC] | 11.4 | 12.5 | 10.8
14 | CGGGCTCA [8-mer CGGGCTCA] | 10.2 | 10.3 | 10.2
15 | GCAACGGA [8-mer GCAACGGA] | 10.3 | 10.3 | 10.4
16 | ATACTTCA [8-mer ATACTTCA] | 11 | 11.9 | 10.8
17 | CGGCGGGA [8-mer CGGCGGGA] | 9.94 | 10 | 9.91
18 | CAGGGAAG [8-mer CAGGGAAG] | 10.2 | 10.1 | 10.2
19 | ACCCGCCC [8-mer ACCCGCCC] | 10.4 | 10.4 | 10.2
